Binding signal data for 14 molecules are collected here from PMC12136788.

T1: UNK ZnF1-3 (human, UniProt Q9C0B0 31-174)
T1 sequence: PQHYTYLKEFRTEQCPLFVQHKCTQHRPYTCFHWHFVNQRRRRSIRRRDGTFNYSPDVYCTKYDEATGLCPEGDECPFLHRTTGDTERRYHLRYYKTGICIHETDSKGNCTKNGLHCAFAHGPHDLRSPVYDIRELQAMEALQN

B1: 96986530_96991664_427_3pUTR_ENSG00000090060_ENST00000216277|human|control|control (ssRNA)
RNA: GGGAGUUCUACAGUCCGACGAUCUACAGAUUGUGGAAGAUUCUUGCUUUCACUGAUUUCUCGUAUCCACUCUUUUACCAGGUUAUUUAGUUUUCCCAAAAUUAAAAUCCUGCGCUGCAGUUCCUCUUCCUCUUCAAAAACCCCCAACAGAGGAUUGAGCAUCA
B2: chr18:9315019:9315020:-_ENSMUSG00000024286_ENSMUST00000053917|mus_mus|FALSE|FALSE (ssRNA)
RNA: GGGAGUUCUACAGUCCGACGAUCCAUACAAUUCUAAACUUUUCCACGCUCACACAGGAGGAGUAUAUGAUAAAGCAAAUGCUAGAAUUUAUCUCAAACAAGGAAAACCUCACAAACCUCGGUCACCGCAACCUAAGAUGGGCACAACAGAGGAUUGAGCAUCA
B3: chr18:3457883:3457884:+_ENSG00000177426_ENST00000400167|hu_hu|motif|central (ssRNA)
RNA: GGGAGUUCUACAGUCCGACGAUCGGGUUAAGCUGUAAGUUUUGCCUGAAGCUCCAUCUCUGCAGCCCGUUUGAGUGCAACAUCCACGGGAAGCUGAAAUCCACUGAAGUCCUGGUUGAGGUCCGGUGGAGUAGGGGGAGGAGUCAACAGAGGAUUGAGCAUCA
B4: chr1:163112212:163112213:-_ENSG00000143248_ENST00000313961|hu_hu|hu_hu_hu_mus_False|68_88 (ssRNA)
RNA: GGGAGUUCUACAGUCCGACGAUCUUUUAUUAUCAGUAAGAGUGAGUCACAUAGUACGCAAAGUAUUGAAUACAAAAAUCAGGAAACAAACACUAUUGGUCCAGAAUUUAAAACUUUAUGAGCGAAGUGCUGGCACAGGACUUACAACAGAGGAUUGAGCAUCA
B5: chr5:37680062:37680063:+_ENSMUSG00000029121_ENSMUST00000031004|mus_hu|mus_mus_mus_hu_False|1_38 (ssRNA)
RNA: GGGAGUUCUACAGUCCGACGAUCUUUGGGUGUAGCUGGUACCUCGUACACAGGACCGUCAUACAUGCCCCUGGAAACCCCUUGCAAUCCAAAAACCUUGCUUCUGAUUUUGACGCGCUGGUACAGGUGCUCCGGGAAUGGCUUCAACAGAGGAUUGAGCAUCA
B6: chr1:39333270:39333271:-_ENSG00000214114_ENST00000397572|hu_mus|FALSE|FALSE (ssRNA)
RNA: GGGAGUUCUACAGUCCGACGAUCUUCUGCCAAUUCUAGGCGAAGCAGCUCUAUUUCUGGGUUUUCCGGGGUAGCAGCUCCUAAGUGAUGCUUUAAAAAAUCCAGAGCACUGGUGGGCUUCUCUGGUUCUUCAUAUAAGGCUACCAACAGAGGAUUGAGCAUCA
B7: chr1:6239374:6239375:+_ENSMUSG00000025907_ENSMUST00000027040|mus_mus|FALSE|FALSE (ssRNA)
RNA: GGGAGUUCUACAGUCCGACGAUCCUCCUGUGUGUGCCUGAUGUGCAGUGUGUCCUCUAAUUCCUUCAGGUGAUUUUGUUCUAAGCACUGAAAUUCAGCUCUCAAUGACUCGAUUUUUUCAUCAUGCAGCUUUUUCAGGUCUUCCAACAGAGGAUUGAGCAUCA
B8: chr1:39494564:39494565:+_ENSG00000168653_ENST00000372967|hu_hu|hu_hu_hu_mus_True|28_98 (ssRNA)
RNA: GGGAGUUCUACAGUCCGACGAUCAUGCAUUCGCCUCAUCGUUUUCUACCGAAGCAAGCACUCUUCGAAGUCAUCGAACUCUAUCUUGCACUCCUUUUUCGCCCGGGUAUAACCGAUCCCGUGUGCACACUCUAUCCACUCUUUCAACAGAGGAUUGAGCAUCA
B9: chr17:66519878:66519879:+_ENSG00000108946_ENST00000358598|hu_mus|FALSE|FALSE (ssRNA)
RNA: GGGAGUUCUACAGUCCGACGAUCACUUCUCUCGUUAUCAUCAAGGUGUGAAAACAGCACAUUCUUUUCGAUGGCCUUGGCUAAAGCAGCCAUUGUCUUAUAAUCUUUUGGAAUAACCUUUCUAACGUAGGAGGCAGCAUCCUCCAACAGAGGAUUGAGCAUCA
B10: chrX:69798090:69798091:-_ENSMUSG00000031343_ENSMUST00000055966|mus_mus|mus_mus_mus_hu_False|28_108 (ssRNA)
RNA: GGGAGUUCUACAGUCCGACGAUCAAGUCCCCAGGUUCUUGUCGUCUUGAUUCCCCUUGACCAGUGGUUCCAGGGAGAAUAUUAAUCAGGAAAAGAAUCCCAAGGCUGGUCACAUAACAGUGACUUGUUUGUGUGAUUAUCAUCCAACAGAGGAUUGAGCAUCA
B11: chr16:32092491:32092492:-_ENSMUSG00000023791_ENSMUST00000096109|mus_hu|FALSE|FALSE (ssRNA)
RNA: GGGAGUUCUACAGUCCGACGAUCUAUGUUUCUCUCUCGUAAUGAAGCCAACUCAUACGGAUCCACAUAAAGUCCUGCAGGAAUGUCCUGUUUAAUUAAGAGACGGCAGGUGUGCAAGUCCUCAAUGCUUUCCCCAAACUUCACCAACAGAGGAUUGAGCAUCA
B12: chr7:141450121:141450122:+_ENSG00000106028_ENST00000265304|hu_mus|hu_hu_hu_mus_True|38_38 (ssRNA)
RNA: GGGAGUUCUACAGUCCGACGAUCUCAUCCGUUCUAUGCCUUUUCUUUUGUCUGGUCACUCAGAAAUAUAAUGUUAUCAGCUAUGAUUGUUGUUGCUUGUCGCCUCACAUUGUUUUUAUCCAUGUACUCGCCAUAGUCCACUUUCAACAGAGGAUUGAGCAUCA
B13: chr7:143079985:143079986:+_ENSG00000159840_ENST00000392910|hu_hu|FALSE|FALSE (ssRNA)
RNA: GGGAGUUCUACAGUCCGACGAUCCUGAGCCGGAGCCGGAACCUGGGGCAGAGGCUGGGAGCUGGAAGGGGACUUCCAAGGAGGCAGGGGUGCUGUGCCCCCGGCUGCAGGCUUGGUACUGGACUUGGAACUGAAUGGAGUGGCCAACAGAGGAUUGAGCAUCA
B14: chrX:140365796:140365797:-_ENSMUSG00000031285_ENSMUST00000033642|mus_hu|FALSE|FALSE (ssRNA)
RNA: GGGAGUUCUACAGUCCGACGAUCCUUCUCAUUACUCAGUGCCUGCAAGGUUCUGGUUCGGUAGAAGCUACAGUGGGCGCUGUGAGUGGGGCUAGGCAACCCAUUCAUCCGGGAGCCUCGCAUGUUCCUGGAUGUCUUAUCUCUCAACAGAGGAUUGAGCAUCA

The other results are listed elsewhere or left out.

This experiment has as its target T1, UNK ZnF1-3. Briefly: nsRBNS (natural sequence RNA bind-n-seq); RBNS binding buffer (assumed for nsRBNS): 25 mM Tris pH 7.5, 150 mM KCl, 3 mM MgCl2, 0.01% Triton X-100, 500 ug/ml BSA, 20 U/ml SUPERase-In, 4 C; UNK is unkempt and MSI1 is Musashi-1; names of the RNAs are library labels; protein concentration not given here; high values mean tight binding.
B1 gave a binding signal of 0.825 enrichment R. As to B2, the binding signal turned out to be 1.66 enrichment R. In turn, B3 registered a binding signal of 1.3 enrichment R. As for B4, the figure is 1.56 enrichment R. On to B5, for which the binding signal worked out at 0.815 enrichment R. The molecule B6 showed a binding signal of 0.891 enrichment R. As to B7, the binding signal is 0.498 enrichment R. Then B8, with 0.694 enrichment R; and B9, with 1 enrichment R. For the molecule B10, the binding signal was 0.605 enrichment R. Then B11, with 1.13 enrichment R. B12 yielded a binding signal of 0.421 enrichment R. The molecule B13 showed a binding signal of 1.58 enrichment R. Then B14, with 0.608 enrichment R.
